# Out of some 420,000 compounds screened, about 64,000 (15%) were called active. Inconclusive results, whose numbers are uncertain, are shown with a selection of clear calls. Calls follow the shape of the dose curve; as a rule, active = well fitted inhibition curve with a large enough effect; inconclusive = small, poorly fitted or top-dose-only effect; inactive = flat fitted curve, though single readings scatter. No potency is given beside an inconclusive call; the fits are too rough.
# Experiment: qHTS for Inhibitors of human tyrosyl-DNA phosphodiesterase 1 (TDP1): qHTS in cells in absence of CPT; also: nearly all actives have a fitted effect of over 55% in size
# Details: DT40 Tdp1-/- hTDP1 cells, no CPT, ATP luminescence, 48 h; activity change, negative = growth inhibition: at 46.2 µM (top of the series) unless noted
# Procedure, shortened: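 Compound effects on proliferation are scored in DT40 Tdp1-/-;hTDP1 cells in the absence of CPT. ATP levels (CellTiter-Glo luminescence) are recorded after a ≥48 hr, 37 °C incubation.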
# % is scaled to controls: 0 for no effect and ±100 for the full control effect; potency is read from the fitted curve at half-maximal effect; tags tell the direction and shape of the fitted curve.
SMILES,Potency,"activity change, negative = growth inhibition"
COc1ccc(N(Cc2ccccc2)C(=O)OC(C)(C)C)c(C(=O)N(C)OC)c1,"inconclusive [inhibitor, single point]",–
Cn1c(=O)n(Cc2ccc(Br)cc2)c2ccccc21,"inconclusive [inhibitor, single point]",–
O=C(c1ccc(N2CCN(C(=O)c3ccccc3Br)CC2)cc1)c1cccc(F)c1,active: 25.9 µM,–
COc1ccc(N2C(=O)CC(Cc3ccc(Br)cc3)C2=O)cc1 (stereo not given),"inconclusive [inhibitor, single point]",–
Cc1ccc(C)c(OCCSc2nc3ccccc3n2CC(=O)N2CCOCC2)c1,"inconclusive [inhibitor, single point]",–
CCOC(=O)c1c(C)[nH]c(C)c1S(=O)(=O)N1CCC(C(=O)NCc2ccccc2)CC1,–,inactive: 3.6%
CCCC[n+]1c(/C=C/c2c(OC)cc(OC)cc2OC)ccc2ccccc21,active: 0.0891 µM,–
Cc1cc(NC(=O)c2cccc(S(=O)(=O)N3c4ccccc4CC3C)c2)no1 (stereo not given),"inconclusive [inhibitor, partial curve]",–
CCOC(=O)c1[nH]c(=O)[nH]c1COC(=O)c1cc2ccccc2o1,"inconclusive [inhibitor, single point]",–
COc1ccc(-c2ccc(NS(=O)(=O)c3ccc(F)c(C(F)(F)F)c3)cc2)nn1,"inconclusive [inhibitor, single point]",–
O=C(C1CCCN(S(=O)(=O)c2cccc3nsnc23)C1)N1CCN(c2ccccn2)CC1 (stereo not given),"inconclusive [inhibitor, single point]",–
Clc1cc(Br)ccc1OCCOCCN1CCOCC1,–,inactive: -27.3%
COC(=O)c1c(NC(=O)CCCOc2ccc(C)cc2)sc2c1C(C(=O)OC)CC2 (stereo not given),active: 13 µM,–
CC(C)c1ccc(NC(=O)COC(=O)c2cc(=O)[nH]c3ccccc23)cc1,–,inactive: 18.4%
CN(C)S(=O)(=O)c1ccc(C(=O)Nc2nnc(SCC(=O)N3CCOCC3)s2)cc1,–,inactive: -7.22%
COc1cccc(OCc2nc3ccccc3n2CCOc2ccccc2)c1,"inconclusive [inhibitor, single point]",–
O=C(Nc1ccc(/C=C/c2nc3ccccc3o2)cc1)c1ccc(F)cc1,"inconclusive [inhibitor, partial curve]",–
CC1C(=O)NN=C1C(=O)N/N=C/c1ccco1 (stereo not given),"inconclusive [inhibitor, single point]",–
COc1ccc(NC(=O)Cc2coc3cc(C)cc(C)c23)c(OC)c1,"inconclusive [inhibitor, single point]",–
Cc1nc2ccn(Cc3ccco3)c(=O)c2cc1C(=O)N1CCN(c2ccccc2F)CC1,"inconclusive [inhibitor, single point]",–
CCOC(=O)/C=C(/C)N1N=C(c2ccc(OC)cc2)CC1c1cccc([N+](=O)[O-])c1 (stereo not given),"inconclusive [inhibitor, partial curve, poor fit]",–
O=C(Nc1cccc(-c2csc(Nc3ccc(Cl)cc3)n2)c1)c1ccccc1,active: 16.4 µM,–
Cc1nc(C(C)N(C)Cc2nc(-c3ccc4c(c3)OCO4)no2)c(C)s1 (stereo not given),"inconclusive [inhibitor, single point]",–
COc1ccccc1C(=O)NNC(=O)c1cccc(Br)c1,–,inactive: -1.34%
NC(=O)CSc1nnc(-c2cccc(S(=O)(=O)N3CCOCC3)c2)o1,–,inactive: -10.2%

SMILES,Potency,"activity change, negative = growth inhibition"
COc1cccc(C2(O)CC(C(F)(F)F)=NN2C(=O)c2ccccn2)c1 (stereo not given),–,inactive: -10.4%
CC(C)C[C@H](NC(=O)[C@H](CCc1ccccc1)NC(=O)CN1CCOCC1)C(=O)N[C@@H](Cc1ccccc1)C(=O)N[C@@H](CC(C)C)C(=O)[C@@]1(C)CO1,active: 0.0042 µM,–
Cc1cc(Cl)ccc1NC(=S)NC(C)(C)C,–,inactive: -14.9%
Cn1nnnc1SCCNC(=O)C1CCC(=O)N(Cc2ccc(Cl)cc2)C1 (stereo not given),–,inactive: 6.31%
COc1ccc(/C=N/NC(N)=S)cc1OC(=O)c1cccc2ccccc12,active: 18.4 µM,–
COc1ccc(S(=O)(=O)N2CCCCCC2)cc1C(=O)N(C)CC(=O)Nc1cc(C)ccc1C,–,inactive: -20.2%
CC1(C)CC(=O)C=C(NCc2ccc(Cl)c(Cl)c2)C1,–,inactive: -22.9%
COc1ccc(NC(=O)CS(=O)CC(=O)Nc2ccc(-n3cnnn3)c(C)c2)cc1 (stereo not given),–,inactive: 0.274%
Cc1sc2nc(CN3CCCC3)nc(N3CCN(S(=O)(=O)c4cccc(F)c4)CC3)c2c1C,"inconclusive [inhibitor, single point]",–
COc1cc2cc(C(=O)NCCc3c[nH]c4ccccc34)c(N)nc2cc1OC,active: 16.4 µM,–
Cc1ccc(OCC(=O)N/N=C/c2ccc([N+](=O)[O-])o2)cc1,active: 13 µM,–
Cc1c(NC(=O)CSCc2ccccc2)cccc1C(=O)O,–,inactive: 7.62%
COc1ccc2cc(S(=O)(=O)N3CCCCCC3)ccc2c1,"inconclusive [inhibitor, single point]",–
O=C(CCC(=O)N1CCN(c2ccc(F)cc2)CC1)N1CCN(c2ccc(F)cc2)CC1,"inconclusive [inhibitor, partial curve]",–
CCOC(=O)C1=C(C)N(C)C(=O)NC1c1c(O)ccc2ccccc12 (stereo not given),"inconclusive [inhibitor, single point]",–
Cc1cc(=O)[nH]c(SCC(=O)O)c1C#N,–,inactive: 0.311%
Cc1c(Cl)cccc1Nc1sc(C(=O)c2ccccc2)c(N)c1S(=O)(=O)c1ccccc1,"inconclusive [inhibitor, single point]",–
Cc1cc(=O)n(C(NC(=O)c2ccccc2)C(=O)c2ccccc2)cn1 (stereo not given),–,inactive: -29.9%
CCCCCCNC(=O)CCNS(=O)(=O)c1ccc(C)cc1,–,inactive: -20.3%
O=C(O)c1ccc(N=NN2CCCCCC2)cc1,–,inactive: -18.6%
COc1ccccc1C(=O)NCCC(=O)N1CCN(S(=O)(=O)c2ccc(Cl)cc2)CC1,–,inactive: -5.07%
CC(=O)Nc1ccc(/C=N/NC(=O)CCN2CCN(c3ccccc3)CC2)cc1,–,inactive: -16.9%
CCOC(=O)c1cnc(COc2ccccc2Cl)[nH]c1=O,–,inactive: -9.74%
CC1C(=O)N(Cc2cn(CC3CCCCC3)nn2)CCS(=O)(=O)N1Cc1ccc(-c2ccncc2)cc1 (stereo not given),–,inactive: -1.49%
O=C(CN(c1ccc(Cl)cc1)S(=O)(=O)c1ccccc1)N1CCN(c2ccccc2)CC1,"inconclusive [inhibitor, single point]",–

SMILES,Potency,"activity change, negative = growth inhibition"
Cc1c(OC(C)C(=O)NCc2ccccn2)ccc2c3c(c(=O)oc12)CCCC3 (stereo not given),"inconclusive [inhibitor, partial curve]",–
COc1ccccc1NC(=O)N1c2ccc(F)cc2CCC1C (stereo not given),–,inconclusive: -30.5% [inhibitor]
Cc1ccc(CNC(=S)Nc2ccc3c(c2)c(=O)n(C)n3Cc2cccc(C(F)(F)F)c2)cc1,active: 14.6 µM,–
c1ccc(-c2nc(-c3nccc4ccccc34)oc2-c2ccccc2)cc1,"inconclusive [inhibitor, single point]",–
CSc1cccc(N2C(=O)N(Cc3ccc([N+](=O)[O-])cc3)c3ccccc3S2(=O)=O)c1,–,inactive: -21%
N#Cc1nc(COc2ccccc2)oc1N1CCCCCC1,–,inconclusive: -32% [inhibitor]
CCC1C(=O)N=C(SCC(=O)Nc2cccc3ccccc23)NC1=O (stereo not given),"inconclusive [inhibitor, partial curve]",–
Cc1cc(C(=O)N/N=C/c2c(C)[nH]n(-c3ccccc3)c2=O)n[nH]1,"inconclusive [inhibitor, single point]",–
CCOC(=O)N1CCc2c(sc3c2c(=O)n(Cc2ccccc2)c(=O)n3Cc2c(F)cccc2Cl)C1,active: 18.4 µM,–
CC(=O)Nc1ccc2nc(-c3ccncc3)[nH]c2c1,–,inactive: -2.94%
CCOC(=O)c1c(C)[nH]c(C(=O)COC(=O)c2c(CC)noc2C)c1C,"inconclusive [inhibitor, single point]",–
COc1cc(SC)ccc1C(=O)Nc1ccc(Br)cn1,active: 13 µM,–
NC(=S)NN=C1Cc2cccc3cccc1c23,–,inactive: -19.5%
COc1ccc(CC2(c3ccccc3)NC(=O)NC2=O)cc1 (stereo not given),"inconclusive [inhibitor, single point]",–
CC1(C)c2ssc(=S)c2-c2ccccc2N1C(=O)CSC1=NCCS1,"inconclusive [inhibitor, single point]",–
CCOc1cccc(CN2CCCC(CNC(=O)c3cccc(OC)c3OC)C2)c1 (stereo not given),"inconclusive [inhibitor, partial curve, poor fit]",–
COC(=O)c1ccccc1NC(=O)CN1CCC(C)CC1,–,inactive: -20.8%
CCc1ccc(CN2CCN(C(=O)c3cccc(OC)c3OC)CC2)cc1,"inconclusive [inhibitor, single point]",–
CCn1c(SCC(=O)N2CCC(C)CC2)nc2c(c1=O)SCC2,"inconclusive [inhibitor, single point]",–
COc1ccc(NC(=O)CCn2c(=O)c3cccn3c3ccccc32)cc1,"inconclusive [inhibitor, partial curve]",–
COCCC1CCCCN1C(=O)c1ccc2nc(Cc3ccccc3F)oc2c1 (stereo not given),"inconclusive [inhibitor, single point]",–
CC(C)c1cc(C(=O)N/N=C/C(Br)=C/c2ccccc2)n[nH]1,active: 2.59 µM,–
Cc1nc2c(OCc3ccc(F)c(F)c3)cccn2c1N(C)C(=O)CCC1CCCC1,active: 16.4 µM,–
CCOc1ccc(NC2=NC(C(=O)NCc3ccccc3)CC(=O)N2)cc1 (stereo not given),–,inactive: 4.3%
CCCNC(=O)C(Cc1ccccc1)NC(=O)c1ccc(C(C)(C)C)cc1 (stereo not given),"inconclusive [inhibitor, partial curve, poor fit]",–
